The other results are listed elsewhere or left out.

The subject of the assay is PF3D7_0420300 AP2 domain 1 (GST-tagged). Description: gcPBM binding intensity (ln(normalized median fluorescence intensity)); higher = stronger DNA binding. Summed up: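 DNA-binding domains from P. falciparum, fused to GST and produced in E. coli, were put on an Agilent 4 × 180k double-stranded probe array for 1 h in 1× PBS holding 1% milk, 0.2 mg/ml BSA, 0.5% salmon testes DNA and 0.03% Triton X-100. Probes were primer-extended, 36 bp long and drawn from intergenic genomic regions, with negative controls included. After Alexa488 anti-GST antibody detection and a 488 nm scan, binding intensity was set as the highest Masliner-normalised natural-log median intensity across replicate spots of either probe orientation.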
As to “AATGGATTAGCTAGCACACACAAAAAAAAAAAAAAA [CACACA_site3031]”, the “gcPBM binding intensity (ln)” value came out at 9.19. Regarding “TACATATTTGTATATGCACACATAAATTTTTCCATT [CACACA_site9148]”, the “gcPBM binding intensity (ln)” value was found to be 9.46.

Consider “AAATATTTATACCACACACACATACCTCTATTTGTA [CACACA_site6957]”, for which the “gcPBM binding intensity (ln)” value worked out at 9.98. As for “TAAAGGCAAACAAACACACACACATATATACCTATA [CACACA_site7078]”, the “gcPBM binding intensity (ln)” value was 9.91. Then “ATAACAAAATAAAACACACACACAAATGTACCTATA [CACACA_site7190]”, with 10.1. The value for “TATTTATAAATATAAACACACAACATTATATGCATA [CACACA_site5748]” was 9.48; that for “AAAAGTGTATGTAGGTGTACTTTTTATTTCTTCTTT [XGTACX_site8819]” was 9.43. Then “TATATATATATATAATGTACGAATAGAAAAAAAAAA [XGTACX_site7231]”, with 9.42; and “CAAAATTTATATAATAGTACACATGATCTTTTTTCT [XGTACX_site8956]”, with 9.26. For the sequence “GATACAAAATGGGGAACACACACATATATATATATA [CACACA_site9278]”, the “gcPBM binding intensity (ln)” value came to 9.82. Then “TATATATATATATATATATATATTAATATATATTAC [XGTACX_negctrl_site103]”, with 8.89. “AAATTAATAAATATTTTTATAAATTATAATATTAAT [GTGCAC_negctrl_site533]”: the “gcPBM binding intensity (ln)” value worked out at 8.84. The value for “TTGGTACCTATAGATACACACATATATACATATATA [CACACA_site3402]” was 9.37. The value for “TAAGAGTAGTTATATACACACATGTATATTATAGTT [CACACA_site6815]” was 9.49; that for “TATATATATATATTATGTACGTATCAGTTTGTATGT [XGTACX_site695]” was 9.48. Take “ATTTTTAATATTATTACACACACTAAAAAAAAAAAA [CACACA_site1067]”: the “gcPBM binding intensity (ln)” value stood at 9.37. The value for “TTATAAATTAGAGGTACACACAAAAAAAAAAAGAAA [CACACA_site6740]” was 9.74; that for “CACGACATTAACAATACATGCAGAAAAACAAAAAAT [TGCATGCA_site689]” was 9.61; that for “TATAAACTTAATTTGAGTACTTAATAATAATTTTGT [XGTACX_site3730]” was 8.96. Then “AATGGGTTAGCACATACACACCAATATATTATATAT [CACACA_site9011]”, with 9.57; and “ATTTATGATATGTAAACATGCATAAAAATTTCAAAA [TGCATGCA_site858]”, with 8.99; and “TATATATGTATATATGGTACAGAATATTCTACATTA [XGTACX_site5077]”, with 9.23. Then “CAATCATTTTATTGTTGTACAGTAATTATGAATTCA [XGTACX_site7508]”, with 9.03; and “TACCACATCGGTAAATGTACTTATAAAAAAAAAAAA [XGTACX_site3364]”, with 8.92.

Source of the values: the supplement of paper PMC11417369.
